From the GPR68 mutational scans of Howard et al. (2025)
The least precise scores are not listed. Two further conditions of the source, in which the scores hardly spread, are not listed. Read del as a deletion of the residues named and ins as an insertion between two positions. For part of these data: The concentration of ogerin is not given here.

B1: GPR68, Q15743 (parent)
chain: MGNITADNSSMSCTIDHTIHQTLAPVVYVTVLVVGFPANCLSLYFGYLQIKARNELGVYLCNLTVADLFYICSLPFWLQYVLQHDNWSHGDLSCQVCGILLYENIYISVGFLCCISVDRYLAVAHPFRFHQFRTLKAAVGVSVVIWAKELLTSIYFLMHEEVIEDENQHRVCFEHYPIQAWQRAINYYRFLVGFLFPICLLLASYQGILRAVRRSHGTQKSRKDQIQRLVLSTVVIFLACFLPYHVLLLVRSVWEASCDFAKGVFNAYHFSLLLTSFNCVADPVLYCFVSETTHRDLARLRGACLAFLTCSRTGRAREAYPLGAPEASGKSGAQGEEPELLTKLHPAFQTPNSPGSGGFPTGRLA

Legend:
[1] = variants of: B1; experiment: cAMP reporter score (Enrich2 score, wild type = 0); higher = more signal; HEK293T, FACS bins
[2] = variants of: B1; experiment: surface expression score (Enrich2 score, wild type = 0); higher = more signal; HEK293T, FACS bins

Variant | cAMP reporter score ([1]; pH 5.5) | cAMP reporter score ([1]; pH 6) | cAMP reporter score ([1]; pH 6, modulator: ogerin) | cAMP reporter score ([1]; pH 6.5, modulator: ogerin) | surface expression score [2]
Y244_H245insGSG | -1.68 | -0.06 | -1.3 | -0.786 | -2.39
C240_F241insG | -1.38 | -1.22 |  | -1.33 | -2.39
C240_F241insGSG | -2.1 |  | -1.68 | -0.601 | -2.25
L247del | -1.35 | -0.985 | -1.57 | -1.46 | -1.35
L242N | -1.24 | -1.32 | -2.01 | -1.23 | -1.96
L242F | -0.352 | 0.219 | 0.013 | -0.125 | -0.77
L242V | 0.597 | 0.242 | 1.02 | 0.777 | -0.273
L242A | 0.516 | 0.455 | 0.605 | 0.784 | 1.23
L242R | -1.17 | -1.08 | -1.33 | -1.17 | -2.58
L242I | 1.05 | 0.573 | -0.126 | 1.31 | -1.93
L242Q | -1.67 | -1.04 | -1.03 | -1.35 | -1.91
L242D | -2.14 |  | -2.29 | -0.428 | 
L242W | -0.27 | -1.29 | -0.653 | -0.579 | -2.27
L242T | 0.422 | -0.058 | 0.994 | 0.722 | 0.207
L242K | -1.43 | 0.171 | -0.634 |  | -4.38
L242E | -1.66 | -0.433 | -1.42 | -1.29 | -2.24
L242P | -1.65 | -1.28 | -1.32 | -0.786 | -2.68
L242S | 0.373 | -0.511 | -0.181 | -0.418 | 0.403
L242M | -0.07 | 0.197 | -0.117 | -0.232 | 1.3
L242C | 0.766 | -0.702 | 0.257 | 0.158 | 0.288
L242G | 1.31 | -0.143 | 1.52 | 0.051 | 2.42

Variant | cAMP reporter score ([1]; pH 5.5) | cAMP reporter score ([1]; pH 6) | cAMP reporter score ([1]; pH 6, modulator: ogerin) | cAMP reporter score ([1]; pH 6.5, modulator: ogerin) | surface expression score [2]
L242H | -0.635 | -0.712 | -0.656 | -0.99 | -1.73
L242Y | -1.52 | -0.998 | -1.51 | -1.21 | -2.63
L238V | 1.32 |  | 1.21 | 0.522 | 2.48
L238F | -0.309 | -0.672 | -0.692 | -0.653 | -0.419
L238H | -1.55 | -0.105 | -1.21 | -0.34 | -1.44
L238G | 1.01 |  | 0.509 | 0.208 | -0.65
L238A | 0.809 | -0.755 | 1.03 | 0.617 | -0.007
L238C | 0.274 |  | -0.472 | -0.461 | 
L238D | -1.52 |  | -1.58 | -0.721 | -2.73
L238I | 0.299 | 0.116 | 0.623 | -0.031 | 0.523
L238K | -0.656 | -1.88 | -1.41 | -1.18 | -2.34
L238T | 0.562 | 0.038 | 0.26 | -0.463 | 0.032
L238Q | -0.457 | 0.75 | 0.627 | -0.118 | -2.79
L238S | 0.238 |  | 0.515 | -0.705 | -0.306
L238W | -1.09 | -1.7 | -1.37 | -1.66 | -2.83
L238Y | -0.999 | -0.837 | -1.74 | -1.57 | -1.5
L238P | -0.643 | -0.431 | -1.09 | -0.671 | -1.01
L238E | -1.41 | -0.848 | -1.59 | -1.71 | -2.44
L238M | 0.414 | 0.356 | 1.1 | 1.86 | 1.27
L247_L248insGSG | -2.25 | -1.99 | -1.48 | -0.98 | -2.27
I236_F237insG | -1.95 |  | -1.2 | -0.633 | 

Variant | cAMP reporter score ([1]; pH 5.5) | cAMP reporter score ([1]; pH 6) | cAMP reporter score ([1]; pH 6, modulator: ogerin) | cAMP reporter score ([1]; pH 6.5, modulator: ogerin) | surface expression score [2]
P243F | -1.08 | -0.871 | -1.81 | -0.789 | -0.461
P243K | -1.69 | -0.823 | -1.37 | -0.533 | -2.72
P243E | -1.41 | -1.23 | -1.02 | -0.658 | -1.69
P243M | -1.34 | -1 | -1.3 | -0.622 | -1.5
P243W | -1.75 | -1.26 | -1.33 | -1.65 | -1.94
P243Q | -1.22 | -1.06 | -1.23 | -1.55 | -2.1
P243V | -0.925 | -1.01 | -1.01 | -0.961 | -1.29
P243D | -1.89 | -2.3 | -1.01 | -0.75 | -1.77
P243C | -1.84 | -1.05 | -2.64 | -0.898 | -1.98
P243R | -0.952 | -0.788 | -1.77 | -1.63 | -1.47
P243A | -0.713 | -0.514 | -1.41 | -0.926 | -2.12
P243T | -1.56 | -1.86 | -1.5 | -1.03 | -1.79
P243H | -2.14 | -2.07 | -1.64 | -1.13 | -2.74
P243N | -1.26 |  | -0.987 | -1.24 | -3.04
P243S | -1.21 | -0.267 | -1.79 | -1.53 | -1.8
P243G | -1.36 | -1.2 | -1.45 | -0.868 | -1.55
P243L | -1.7 | -1.14 | -1.78 | -1.22 | -2.44
P243Y | -1.06 | -1.48 | -0.585 | -1.03 | -2.2
P243I | -1.62 | -0.319 | -1.3 | -1.17 | -2.68
F241M | 0.491 |  | -0.073 |  | -0.559
F241W | 1.11 |  | -1.3 |  | -2.4
